# In the supplement of paper PMC10369915:
# The list shows a part of the results. Cut-off read from the data, not from the text of the source: active = 3.2 or more and inactive = the rest. Only a few entries rise above the background.
# How the values were obtained:
# Test in all cases: enrichment score (SH2-bound / input frequency) (ratio); bacterial display of known human phosphotyrosine sites (pTyr-Var adds point mutants) read by sequencing; higher = stronger binding; tyrosines were phosphorylated by kinases first
# Details in all cases: peptide library: pTyr-Var
# SHP2 C-SH2 domain E139D = target: SHP2 C-SH2 domain E139D
# [1] = target: SHP2 C-SH2 domain wild-type
# SHP2 N-SH2 domain L43F = target: SHP2 N-SH2 domain L43F
# SHP2 N-SH2 domain T42A = target: SHP2 N-SH2 domain T42A
# SHP2 N-SH2 domain T52S = target: SHP2 N-SH2 domain T52S
# [2] = target: SHP2 N-SH2 domain wild-type
# 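Note: displayed peptides selected on beads carrying the immobilized SH2 domain, with library peptides lacking any tyrosine serving as negative controls.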
Binder,enrichment score (SHP2 C-SH2 domain E139D),enrichment score [1],enrichment score (SHP2 N-SH2 domain L43F),enrichment score (SHP2 N-SH2 domain T42A),enrichment score (SHP2 N-SH2 domain T52S),enrichment score [2]
CGPLLYGLVHQ [PRKCG_Y122_S119P],inactive: 1.08,inactive: 1.28,inactive: 1.08,inactive: 1.04,inactive: 1.02,inactive: 1.65
YPLELYERVRI [PRKCG_Y312_M317I],inactive: 0.833,inactive: 0.983,inactive: 0.804,inactive: 0.775,inactive: 0.849,inactive: 0.978
FPLELYERVRM [PRKCG_Y312_YF],inactive: 1.11,inactive: 1.21,inactive: 0.921,inactive: 1.05,inactive: 1.08,inactive: 1.26
CGTPDNIAPEI [PRKCG_Y521_Y521N],inactive: 0.879,inactive: 0.845,inactive: 0.971,inactive: 0.752,inactive: 0.639,inactive: 1.05
PEIIAYQPFGK [PRKCG_Y529_YF],inactive: 0.91,inactive: 0.811,inactive: 0.868,inactive: 1.31,inactive: 0.884,inactive: 0.837
IGHGSYAKVLL [PRKCZ_Y263_R260H],active: 3.24,active: 6.32,inactive: 2.11,active: 5.6,inactive: 2.89,inactive: 1.05
AKKMKYFEGVS [PRKDC_Y682_I680M],inactive: 0.944,inactive: 0.783,inactive: 0.879,inactive: 0.642,inactive: 0.523,inactive: 0.704
YENGEYIIRQG [PRKG1_Y247],inactive: 2.65,inactive: 2.39,inactive: 2.54,active: 3.22,inactive: 2.82,inactive: 2.12
FENGEYIIRQG [PRKG1_Y247_YF],inactive: 1.18,inactive: 0.829,inactive: 0.876,inactive: 0.86,inactive: 0.965,inactive: 0.917
ECKETYHEGEC [PRKN_Y372_A371T],inactive: 0.506,inactive: 0.526,inactive: 0.502,inactive: 0.407,inactive: 0.641,inactive: 0.552
TTTQAYRVDER [PRKN_Y391],inactive: 0.543,inactive: 0.614,inactive: 0.556,inactive: 0.626,inactive: 0.552,inactive: 0.65
GEFHVYRHLRR [PRKRIP1_Y82],inactive: 0.222,inactive: 0.227,inactive: 0.218,inactive: 0.317,inactive: 0.235,inactive: 0.175
GEFHVYRHLRW [PRKRIP1_Y82_R87W],inactive: 1.14,inactive: 1.17,inactive: 1.29,inactive: 1.15,inactive: 1.3,inactive: 1.12
LRRREYQRQDF [PRKRIP1_Y90_YF],inactive: 0.286,inactive: 0.277,inactive: 0.235,inactive: 0.236,inactive: 0.27,inactive: 0.198
MCITQYKRESQ [PRNP_Y218_E219K],inactive: 0.642,inactive: 0.576,inactive: 0.586,inactive: 0.573,inactive: 0.808,inactive: 0.582
PKGWNYELPAT [PROM1_Y34_A31G],inactive: 1.1,inactive: 0.912,inactive: 1.06,inactive: 0.613,inactive: 0.736,inactive: 0.987
QLCVNYPGGYT [PROS1_Y259],inactive: 0.996,inactive: 1.09,inactive: 1.04,inactive: 0.721,inactive: 0.705,inactive: 1.39
QLCVNYPGGFT [PROS1_Y259_YF],inactive: 0.883,inactive: 1.42,inactive: 1.17,inactive: 0.689,inactive: 0.932,inactive: 1.36
GGFTRYCDGKK [PROS1_Y266_C265R_YF],inactive: 0.85,inactive: 1,inactive: 1.02,inactive: 0.968,inactive: 1.06,inactive: 1.02
